Experimental data: the supplement of paper PMC10338343
± gives the standard deviation. The list shows a part of the results, in another mix than the full data.

Tested on: MIWI (PIWIL1) piRISC loaded with L1MC piRNA (30 nt)
Assay: pre-steady-state target cleavage rate (min^-1); MIWI and MILI are mouse PIWI proteins and EfPiwi is from a freshwater sponge; tags in brackets are library labels; higher = faster piRNA-guided slicing of the target
Settings: guide: L1MC piRNA 5'p-UAACUAAAUACUAUGCAAGCUGUAGGUCCU; auxiliary factor: 500 nM mouse GTSF1
How it was run: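 Cleave-'n-Seq measured uncleaved targets by sequencing after a transcribed, DNA-blocked target RNA library […] was mixed with 1 nM active affinity-purified piRISC holding one synthetic guide, with or without 500 nM GTSF1 partner protein, at 33 °C in HEPES–potassium acetate buffer for 0–8 or 0–960 min. Counts were normalised to depth and to weakly complementary targets, three trials were pooled, and k3 was capped at 0.0001 min^-1. A burst-and-steady-state fit gave the pre-steady-state cleavage rate.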
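Also: 1 nM active piRISC with 0.1 nM target library at 33 °C single turnover.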

Sequence | pre-steady-state target cleavage rate
UGGACCUACAGCUUGCAUAGUUAAAUCAAA [g10:g29:cont:t1A] | 0.0144 ± 0.0068
UCGACCUACAGCUACCAUAGUAUUUAGUAA | 0.355 ± 0.037
UCCUGGAUGUCCUUGCAUAGUAUUUAGUCUA | 0.0125 ± 0.0042
AGGACCUACAGCUUGCAUAGAUUUUUCAAA | 0.605 ± 0.2
UCCUCCUACAGGAAGCAUAGUAUUUUCAAA | 0.0519 ± 0.017
UCCACCUACAGCAUGCAUAGUAUUUUCAAA | 0.261 ± 0.034
UCCACCUACAGCUUGCAUAGUUUUAGUUA | 0.016 ± 0.008
UCCUGGAUGUCGAUAGCAUAGUAUUUAGUUA | 0.0121 ± 0.0058
UCCUGGUACAGCUUGCAUAGUUUUUACAAA | 0.0727 ± 0.021
UCCUGCUACAGCUUCCAUAGUAUUUAGAAA | 0.0178 ± 0.0084
UGGACCUACAGCUUCCAUACUAUUUAGUUA | 0.00362 ± 0.0031
UCCUGCUACAGCUUGCACUAGUAUUUAGUUA | 0.0115 ± 0.0058
UCCUGGUACAGCUUGCAUAGUAUAUUCAAA | 0.178 ± 0.054
